Source: patent US12630643B2, “CD40 binding protein, bispecific conjugate thereof and method of treating cancer” (priority 2020, dated 2026)

tested on: human monocyte-derived DC (MoDC); experiment: MoDC activation, IL-12p40 ELISA; type: cell-based; conditions: Example 13; 100-12.5 nM, 48 hours

Row | Molecule | IL-12 production (agonistic potential)
1 | A9 C127S: A9 VH with IgG2 C127S constant domain; heavy chain SEQ ID NO: 74, light chain SEQ ID NO: 9 (antibody, A9 VH domain and IgG2 C127S constant domain; Light chain) heavy: EVQLLESGGGLVQPGGSLRLSCAASGFTFSSYAMSWVRQAPGKGLEWVSGISGYSGSTYYADSVKGRFTISRDNSKNTLYLQMNSLRAEDTAVYYCARYYSYYGYYYFDYWGQGTLVTVSSASTKGPSVFPLAPSSRSTSESTAALGCLVKDYFPEPVTVSWNSGALTSGVHTFPAVLQSSGLYSLSSVVTVPSSNFGTQTYTCNVDHKPSNTKVDKTVERKCCVECPPCPAPPVAGPSVFLFPPKPKDTLMISRTPEVTCVVVDVSHEDPEVQFNWYVDGVEVHNAKTKPREEQFNSTFRVVSVLTVVHQDWLNGKEYKCKVSNKGLPAPIEKTISKTKGQPREPQVYTLPPSREEMTKNQVSLTCLVKGFYPSDIAVEWESNGQPENNYKTTPPMLDSDGSFFLYSKLTVDKSRWQQGNVFSCSVMHEALHNHYTQKSLSLSPGK light: DIQMTQSPSSLSASVGDRVTITCRASQSISSYLNWYQQKPGKAPKLLIYAASSLQSGVPSRFSGSGSGTDFTLTISSLQPEDFATYYCQQGYPYPFTFGQGTKLEIKRTVAAPSVFIFPPSDEQLKSGTASVVCLLNNFYPREAKVQWKVDNALQSGNSQESVTEQDSKDSTYSLSSTLTLSKADYEKHKVYACEVTHQGLSSPVTKSFNRGEC | dose-dependent agonistic potential
2 | X-SM083-bi-28: bispecific: Y-SM083-A9 IgG2, FITC8 scFv at CL, (G4S)2 linker (antibody) heavy: EVQLLESGGGLVQPGGSLRLSCAASGFTFSSYAMSWVRQAPGKGLEWVSGISGYSGSTYYADSVKGRFTISRDNSKNTLYLQMNSLRAEDTAVYYCARYYSYYGYYYFDYWGQGTLVTVSSASTKGPSVFPLAPCSRSTSESTAALGCLVKDYFPEPVTVSWNSGALTSGVHTFPAVLQSSGLYSLSSVVTVPSSNFGTQTYTCNVDHKPSNTKVDKTVERKCCVECPPCPAPPVAGPSVFLFPPKPKDTLMISRTPEVTCVVVDVSHEDPEVQFNWYVDGVEVHNAKTKPREEQFNSTFRVVSVLTVVHQDWLNGKEYKCKVSNKGLPAPIEKTISKTKGQPREPQVYTLPPSREEMTKNQVSLTCLVKGFYPSDIAVEWESNGQPENNYKTTPPMLDSDGSFFLYSKLTVDKSRWQQGNVFSCSVMHEALHNHYTQKSLSLSPGK light: DIQMTQSPSSLSASVGDRVTITCRASQSISSYLNWYQQKPGKAPKLLIYAASSLQSGVPSRFSGSGSGTDFTLTISSLQPEDFATYYCQQGYPYPFTFGQGTKLEIKRTVAAPSVFIFPPSDEQLKSGTASVVCLLNNFYPREAKVQWKVDNALQSGNSQESVTEQDSKDSTYSLSSTLTLSKADYEKHKVYACEVTHQGLSSPVTKSFNRGECGGGGSGGGGSEVQLLESGGGLVQPGGSLRLSCAASGFTFSNYWMSWVRQAPGKGLEWVSGISGNGGYTYFADSVKDRFTISRDNSKNTLYLQMNSLRAEDTAVYYCAGGDGSGWSFWGQGTLVTVSSGGGGSGGGGSGGGGSGGGGSQSVLTQPPSASGTPGQRVTISCTGSSSNIGAGYDVHWYQQLPGTAPKLLIYGNNNRPSGVPDRFSGSKSGTSASLAISGLRSEDEADYYCAAWDDSLSGRVFGGGTKLTVL | retained their respective agonistic potential in a dose-dependent manner
3 | X-SM083-bi-29: bispecific: Y-SM083-A9 IgG2 C127S, FITC8 scFv at CH3, (G4S)2 linker (antibody) heavy: EVQLLESGGGLVQPGGSLRLSCAASGFTFSSYAMSWVRQAPGKGLEWVSGISGYSGSTYYADSVKGRFTISRDNSKNTLYLQMNSLRAEDTAVYYCARYYSYYGYYYFDYWGQGTLVTVSSASTKGPSVFPLAPSSRSTSESTAALGCLVKDYFPEPVTVSWNSGALTSGVHTFPAVLQSSGLYSLSSVVTVPSSNFGTQTYTCNVDHKPSNTKVDKTVERKCCVECPPCPAPPVAGPSVFLFPPKPKDTLMISRTPEVTCVVVDVSHEDPEVQFNWYVDGVEVHNAKTKPREEQFNSTFRVVSVLTVVHQDWLNGKEYKCKVSNKGLPAPIEKTISKTKGQPREPQVYTLPPSREEMTKNQVSLTCLVKGFYPSDIAVEWESNGQPENNYKTTPPMLDSDGSFFLYSKLTVDKSRWQQGNVFSCSVMHEALHNHYTQKSLSLSPGKGGGGSGGGGSEVQLLESGGGLVQPGGSLRLSCAASGFTFSNYWMSWVRQAPGKGLEWVSGISGNGGYTYFADSVKDRFTISRDNSKNTLYLQMNSLRAEDTAVYYCAGGDGSGWSFWGQGTLVTVSSGGGGSGGGGSGGGGSGGGGSQSVLTQPPSASGTPGQRVTISCTGSSSNIGAGYDVHWYQQLPGTAPKLLIYGNNNRPSGVPDRFSGSKSGTSASLAISGLRSEDEADYYCAAWDDSLSGRVFGGGTKLTVL light: DIQMTQSPSSLSASVGDRVTITCRASQSISSYLNWYQQKPGKAPKLLIYAASSLQSGVPSRFSGSGSGTDFTLTISSLQPEDFATYYCQQGYPYPFTFGQGTKLEIKRTVAAPSVFIFPPSDEQLKSGTASVVCLLNNFYPREAKVQWKVDNALQSGNSQESVTEQDSKDSTYSLSSTLTLSKADYEKHKVYACEVTHQGLSSPVTKSFNRGEC | retained their respective agonistic potential in a dose-dependent manner
4 | X-SM083-bi-30: bispecific: Y-SM083-A9 IgG2 C127S, FITC8 scFv at CL, (G4S)2 linker (antibody) heavy: EVQLLESGGGLVQPGGSLRLSCAASGFTFSSYAMSWVRQAPGKGLEWVSGISGYSGSTYYADSVKGRFTISRDNSKNTLYLQMNSLRAEDTAVYYCARYYSYYGYYYFDYWGQGTLVTVSSASTKGPSVFPLAPSSRSTSESTAALGCLVKDYFPEPVTVSWNSGALTSGVHTFPAVLQSSGLYSLSSVVTVPSSNFGTQTYTCNVDHKPSNTKVDKTVERKCCVECPPCPAPPVAGPSVFLFPPKPKDTLMISRTPEVTCVVVDVSHEDPEVQFNWYVDGVEVHNAKTKPREEQFNSTFRVVSVLTVVHQDWLNGKEYKCKVSNKGLPAPIEKTISKTKGQPREPQVYTLPPSREEMTKNQVSLTCLVKGFYPSDIAVEWESNGQPENNYKTTPPMLDSDGSFFLYSKLTVDKSRWQQGNVFSCSVMHEALHNHYTQKSLSLSPGK light: DIQMTQSPSSLSASVGDRVTITCRASQSISSYLNWYQQKPGKAPKLLIYAASSLQSGVPSRFSGSGSGTDFTLTISSLQPEDFATYYCQQGYPYPFTFGQGTKLEIKRTVAAPSVFIFPPSDEQLKSGTASVVCLLNNFYPREAKVQWKVDNALQSGNSQESVTEQDSKDSTYSLSSTLTLSKADYEKHKVYACEVTHQGLSSPVTKSFNRGECGGGGSGGGGSEVQLLESGGGLVQPGGSLRLSCAASGFTFSNYWMSWVRQAPGKGLEWVSGISGNGGYTYFADSVKDRFTISRDNSKNTLYLQMNSLRAEDTAVYYCAGGDGSGWSFWGQGTLVTVSSGGGGSGGGGSGGGGSGGGGSQSVLTQPPSASGTPGQRVTISCTGSSSNIGAGYDVHWYQQLPGTAPKLLIYGNNNRPSGVPDRFSGSKSGTSASLAISGLRSEDEADYYCAAWDDSLSGRVFGGGTKLTVL | retained their respective agonistic potential in a dose-dependent manner
